From the supplement of paper PMC4967469

Compound: CS(=O)(=O)N1CCN(Cc2cc3nc(-c4cccc5[nH]ncc45)nc(N4CCOCC4)c3s2)CC1 [GDC0941]
Test: Viability of human cancer cell lines after 72 h of drug (GDSC screen)
Settings: screen: GDSC drug entry 1058
Description: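 Human cancer cell lines in 384-well plates, medium with 10% serum, drug for 72 h over a 256-fold dose range (nine 2-fold or five 4-fold steps up to the top dose). Adherent lines were fixed and stained with the nucleic acid dye Syto60, suspension lines read with resazurin; signal relative to control wells, capped at 0 and 100%. One two-parameter sigmoid per drug and line, fitted in a mixed model over all curves with the slope shared within a line.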

“MOLM-16 (acute myeloid leukaemia, suspension, top dose 4 µM)” gave an AUC of 0.424 and an IC50 of 159 nM.
Cell Line “CAL-27 (head and neck, adherent, top dose 4 µM)” has an AUC of 0.784 and an IC50 of 1730 nM.
“CHL-1 (melanoma, adherent, top dose 4 µM)” showed an AUC of 0.56 and an IC50 of 362 nM.
Work on “CW-2 (large intestine, adherent, top dose 4 µM)” yielded an AUC of 0.973 and an IC50 greater than 4000 nM.
“MDA-MB-330 (breast, adherent, top dose 4 µM)” gave an AUC of 0.772 and an IC50 of 1760 nM.
In the case of “NH-12 (neuroblastoma, adherent, top dose 4 µM)”, the AUC is reported as 0.755 and the IC50 is reported as 1500 nM.
Cell Line “EoL-1-cell (haematopoietic neoplasm, suspension, top dose 4 µM)” has an AUC of 0.684 and an IC50 of 762 nM.
With “NCI-H650 (lung adenocarcinoma, adherent, top dose 4 µM)” the AUC was 0.879 and the IC50 was greater than 4000 nM.
Cell Line “HARA (lung squamous cell carcinoma, adherent, top dose 4 µM)” has an AUC of 0.762 and an IC50 of 1660 nM.
Work on “HEC-1 (endometrium, adherent, top dose 4 µM)” yielded an AUC of 0.904 and an IC50 greater than 4000 nM.
“SIMA (neuroblastoma, adherent, top dose 4 µM)” was tested, and the AUC was 0.882 and the IC50 was greater than 4000 nM.
Work on “CHSA8926 (chondrosarcoma, adherent, top dose 4 µM)” yielded an AUC of 0.668 and an IC50 of 895 nM.
In the case of “TMK-1 (stomach, adherent, top dose 4 µM)”, the AUC is reported as 0.593 and the IC50 is reported as 458 nM.
Cell Line “MZ2-MEL (melanoma, adherent, top dose 4 µM)” has an AUC of 0.703 and an IC50 of 1040 nM.
“KYSE-150 (oesophagus, adherent, top dose 4 µM)” gave an AUC of 0.888 and an IC50 greater than 4000 nM.
“22RV1 (prostate, adherent, top dose 4 µM)” showed an AUC of 0.757 and an IC50 of 1690 nM.
OV-7 (ovary, adherent, top dose 4 µM) showed an AUC of 0.636 and an IC50 of 722 nM.
In the case of “A101D (melanoma, adherent, top dose 4 µM)”, the AUC is reported as 0.671 and the IC50 is reported as 842 nM.
Cell Line “HuP-T4 (pancreas, adherent, top dose 4 µM)” has an AUC of 0.716 and an IC50 of 1060 nM.
Cell Line “CAL-54 (kidney, adherent, top dose 2 µM)” has an AUC of 0.776 and an IC50 of 919 nM.
“KE-37 (lymphoblastic leukaemia, suspension, top dose 4 µM)” gave an AUC of 0.857 and an IC50 of 2110 nM.
“JURL-MK1 (chronic myeloid leukaemia, suspension, top dose 4 µM)” gave an AUC of 0.942 and an IC50 greater than 4000 nM.
For “MDST8 (large intestine, adherent, top dose 4 µM)”, the AUC was 0.921 and the IC50 was greater than 4000 nM.
For “EW-22 (Ewing sarcoma, adherent, top dose 4 µM)”, the AUC was 0.769 and the IC50 was 1450 nM.
With “LCLC-97TM1 (large cell lung carcinoma, adherent, top dose 4 µM)” the AUC was 0.783 and the IC50 was 1850 nM.
“8-MG-BA (glioma, adherent, top dose 4 µM)” gave an AUC of 0.879 and an IC50 of 3650 nM.
Work on “ETK-1 (biliary tract, adherent, top dose 4 µM)” yielded an AUC of 0.79 and an IC50 of 2050 nM.
In the case of “SUP-M2 (anaplastic large cell lymphoma, suspension, top dose 4 µM)”, the AUC is reported as 0.99 and the IC50 is reported as greater than 4000 nM.
“JVM-2 (lymphoid neoplasm, suspension, top dose 4 µM)” showed an AUC of 0.614 and an IC50 of 553 nM.
In the case of “NCI-H1304 (small cell lung carcinoma, suspension, top dose 4 µM)”, the AUC is reported as 0.975 and the IC50 is reported as greater than 4000 nM.
“SNU-C5 (large intestine, adherent, top dose 4 µM)” gave an AUC of 0.859 and an IC50 of 3860 nM.
Work on “SK-LMS-1 (soft tissue, adherent, top dose 4 µM)” yielded an AUC of 0.648 and an IC50 of 627 nM.
In the case of BT-20 (breast, adherent, top dose 4 µM), the AUC is reported as 0.764 and the IC50 is reported as 1790 nM.
“RCC-FG2 (kidney, adherent, top dose 4 µM)” gave an AUC of 0.709 and an IC50 of 1160 nM.
Cell Line “PCI-4B (head and neck, adherent, top dose 4 µM)” has an AUC of 0.669 and an IC50 of 719 nM.
For “WSU-DLCL2 (B-cell lymphoma, suspension, top dose 4 µM)”, the AUC was 0.628 and the IC50 was 526 nM.
Work on “JiyoyeP-2003 (Burkitt lymphoma, suspension, top dose 4 µM)” yielded an AUC of 0.958 and an IC50 greater than 4000 nM.
Work on U031 (kidney, adherent, top dose 2 µM) yielded an AUC of 0.972 and an IC50 greater than 2000 nM.
“A4-Fuk (B-cell lymphoma, suspension, top dose 4 µM)” was tested, and the AUC was 0.51 and the IC50 was 266 nM.
HLE (liver, adherent, top dose 2 µM) showed an AUC of 0.91 and an IC50 greater than 2000 nM.
Work on “NCI-H1781 (lung adenocarcinoma, adherent, top dose 4 µM)” yielded an AUC of 0.948 and an IC50 greater than 4000 nM.
In the case of “ASH-3 (thyroid, adherent, top dose 4 µM)”, the AUC is reported as 0.755 and the IC50 is reported as 1360 nM.
In the case of “PANC-04-03 (pancreas, adherent, top dose 4 µM)”, the AUC is reported as 0.88 and the IC50 is reported as greater than 4000 nM.
For “HA7-RCC (kidney, adherent, top dose 4 µM)”, the AUC was 0.692 and the IC50 was 917 nM.
“QGP-1 (pancreas, adherent, top dose 4 µM)” showed an AUC of 0.947 and an IC50 greater than 4000 nM.
“LC-2-ad (lung adenocarcinoma, adherent, top dose 2 µM)” gave an AUC of 0.896 and an IC50 greater than 2000 nM.
Cell Line “JM1 (B-cell lymphoma, suspension, top dose 4 µM)” has an AUC of 0.893 and an IC50 of 3560 nM.
“SK-HEP-1 (liver, adherent, top dose 4 µM)” gave an AUC of 0.988 and an IC50 greater than 4000 nM.
Cell Line “HuO-3N1 (osteosarcoma, adherent, top dose 4 µM)” has an AUC of 0.853 and an IC50 greater than 4000 nM.
“EGI-1 (biliary tract, adherent, top dose 2 µM)” gave an AUC of 0.742 and an IC50 of 776 nM.
In the case of “RPMI-8866 (chronic myeloid leukaemia, suspension, top dose 4 µM)”, the AUC is reported as 0.444 and the IC50 is reported as 178 nM.
In the case of “NCI-H1563 (lung adenocarcinoma, adherent, top dose 4 µM)”, the AUC is reported as 0.683 and the IC50 is reported as 902 nM.
With “HCC202 (breast, adherent, top dose 4 µM)” the AUC was 0.788 and the IC50 was 2570 nM.
For “SCC90 (head and neck, adherent, top dose 4 µM)”, the AUC was 0.885 and the IC50 was greater than 4000 nM.
In the case of “NCI-H1694 (small cell lung carcinoma, suspension, top dose 4 µM)”, the AUC is reported as 0.923 and the IC50 is reported as greater than 4000 nM.
For “NKM-1 (acute myeloid leukaemia, suspension, top dose 4 µM)”, the AUC was 0.771 and the IC50 was 1580 nM.
“KMH-2 (thyroid, adherent, top dose 4 µM)” gave an AUC of 0.897 and an IC50 greater than 4000 nM.
With “ST486 (Burkitt lymphoma, suspension, top dose 4 µM)” the AUC was 0.969 and the IC50 was greater than 4000 nM.
Cell Line C32 (melanoma, adherent, top dose 4 µM) has an AUC of 0.859 and an IC50 of 3690 nM.
Cell Line “MC-IXC (neuroblastoma, adherent, top dose 4 µM)” has an AUC of 0.936 and an IC50 of 3700 nM.
In the case of “BFTC-905 (bladder, adherent, top dose 4 µM)”, the AUC is reported as 0.733 and the IC50 is reported as 1030 nM.
Work on “FTC-133 (thyroid, adherent, top dose 4 µM)” yielded an AUC of 0.92 and an IC50 greater than 4000 nM.
For “CHP-212 (neuroblastoma, adherent, top dose 4 µM)”, the AUC was 0.554 and the IC50 was 347 nM.
Cell Line “SK-LU-1 (lung adenocarcinoma, adherent, top dose 4 µM)” has an AUC of 0.803 and an IC50 of 2650 nM.
Cell Line “OCUB-M (breast, adherent, top dose 4 µM)” has an AUC of 0.945 and an IC50 greater than 4000 nM.
“FLO-1 (oesophagus, adherent, top dose 4 µM)” showed an AUC of 0.574 and an IC50 of 435 nM.
“ES8 (Ewing sarcoma, adherent, top dose 4 µM)” was tested, and the AUC was 0.599 and the IC50 was 458 nM.
“T84 (large intestine, adherent, top dose 4 µM)” was tested, and the AUC was 0.989 and the IC50 was greater than 4000 nM.
With “UACC-257 (melanoma, adherent, top dose 4 µM)” the AUC was 0.973 and the IC50 was greater than 4000 nM.
In the case of “ES7 (Ewing sarcoma, adherent, top dose 4 µM)”, the AUC is reported as 0.539 and the IC50 is reported as 321 nM.
Work on “VCaP (prostate, adherent, top dose 4 µM)” yielded an AUC of 0.941 and an IC50 greater than 4000 nM.
For “OCI-LY-19 (B-cell lymphoma, suspension, top dose 4 µM)”, the AUC was 0.823 and the IC50 was 2110 nM.
In the case of “CCK-81 (large intestine, adherent, top dose 4 µM)”, the AUC is reported as 0.903 and the IC50 is reported as greater than 4000 nM.
Cell Line “COR-L95 (small cell lung carcinoma, adherent, top dose 4 µM)” has an AUC of 0.939 and an IC50 greater than 4000 nM.
Cell Line TT (thyroid, adherent, top dose 2 µM) has an AUC of 0.98 and an IC50 greater than 2000 nM.
For “TOV-112D (ovary, adherent, top dose 4 µM)”, the AUC was 0.813 and the IC50 was 2180 nM.
In the case of “SK-ES-1 (Ewing sarcoma, semi-adherent, top dose 4 µM)”, the AUC is reported as 0.511 and the IC50 is reported as 268 nM.
“D-566MG (glioma, adherent, top dose 4 µM)” was tested, and the AUC was 0.787 and the IC50 was 1710 nM.
“Ramos-2G6-4C10 (Burkitt lymphoma, suspension, top dose 4 µM)” showed an AUC of 0.568 and an IC50 of 372 nM.
Work on A431 (skin, adherent, top dose 4 µM) yielded an AUC of 0.794 and an IC50 of 1750 nM.
With “OS-RC-2 (kidney, adherent, top dose 4 µM)” the AUC was 0.959 and the IC50 was greater than 4000 nM.
“COLO-678 (large intestine, semi-adherent, top dose 4 µM)” showed an AUC of 0.954 and an IC50 greater than 4000 nM.

A lower IC50 marks a more sensitive line; fits outside the tested doses are given as limits. For AUC the same curve is integrated over the 256-fold range of doses and scaled to a fraction: 1 means no effect, lower means more sensitive. An entry number marks a drug with two screens in the source, which often give different values.
